From the supplement of paper PMC10600219 come the findings set out here.

Counter-ions that a name gives are not always drawn. In all, about 2,800 compounds were measured (“cell viability relative to vehicle”: median about 0.98, lowest 2% from about 0.45 on). Some of the results follow.

For this assay, the system named is NCI-H2228 alectinib-DTP. As to the kind of experiment: cell viability relative to vehicle (fraction of vehicle); NCI-H2228 is an ALK-positive lung cancer line and DTP means drug-tolerant persister; higher = less growth inhibition. The settings on record: 100 nM; treatment time 6 days. In a few lines: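 Drug-tolerant persister NCI-H2228 cells, produced by 13 days in 1000 nM of a targeted drug, and their parental counterparts were seeded into 384-well plates and, the following day, given the 3114-agent TargetMol anti-cancer compound library at 100 nM or DMSO vehicle. After 6 days, the CellTiter-Glo 3D Cell Viability Assay was used to read ATP. Each entry reports viability compared with vehicle-treated cells.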
For `Nc1ccc(Cl)cc1C(=O)O` [2-Amino-5-chlorobenzoic acid], the cell viability was determined as 1.03.
Take `COc1cc2ncc(-c3ccccc3)nc2cc1OC` [Tyrphostin AG 1296]: the cell viability amounted to 0.903.
As to `O=c1cc(N2CCNCC2)oc2c(-c3ccccc3)cccc12`, the cell viability is 0.886.
With `CCOc1ccc2c(-c3cccc(F)c3)nn(CC(=O)N(C)c3ccc4nc(C)oc4c3)c(=O)c2c1` the figure was 0.927; with `COc1cc2c(c(OC)c1OC)-c1c(cc(OC)c(OC)c1OC)CC(C)C(C)C2` (stereo unspecified) [Schizandrin A], 0.877.
With `CC(C)=CC(=O)O[C@H]1Cc2cc3ccc(=O)oc3cc2OC1(C)C` [Decursin], the cell viability amounted to 1.05.
Next, `Cc1ccc(-c2ncc(Cl)cc2-c2ccc(S(C)(=O)=O)cc2)cn1` [Etoricoxib]: 0.866; `O=C(O)c1cc(O)c2c(c1)[C@@H]([C@H]1c3cc(C(=O)O)cc(O)c3C(=O)c3c(O[C@@H]4O[C@H](CO)[C@@H](O)[C@H](O)[C@H]4O)cccc31)c1cccc(O[C@@H]3O[C@H](CO)[C@@H](O)[C@H](O)[C@H]3O)c1C2=O` [Sennoside B]: 0.981.
With `Cn1ncc(Cl)c1-c1cc(C(=O)N[C@H](CN)Cc2cccc(F)c2)sc1Cl` [Afuresertib] the figure was 0.619; with `Clc1ccc(COC(Cn2ccnc2)c2ccc(Cl)cc2Cl)c(Cl)c1` (stereo unspecified) [Miconazole], 1.04.
`COc1c(O[C@@H]2O[C@H](CO)[C@@H](O)[C@H](O)[C@H]2O)cc2occ(-c3ccc(O)cc3)c(=O)c2c1O` [Tectoridin] gave a cell viability of 1.03.
Next, `Cc1cc(=O)n(-c2ccccc2)n1C` [Antipyrine]: 1; `C[C@H](NC(=O)CNC(=O)c1cccc(Cl)c1)c1ccccc1`: 0.957; `C=CC(=O)N1CCC(Oc2cc3c(Nc4ccc(Cl)c(Cl)c4F)ncnc3cc2OC)CC1` [Poziotinib]: 0.648.
Next, `Cc1c(Cc2ccc3ccccc3n2)c2cc(F)ccc2n1CC(=O)O` [Timapiprant]: 0.927; `CO[C@@H](C(=O)N1Cc2[nH]nc(NC(=O)c3ccc(N4CCN(C)CC4)cc3)c2C1)c1ccccc1` [Danusertib]: 0.816; `CCCCCCCCCCCCCCCC(=O)NCCO` [Palmidrol]: 1.
Next, `CC(C)=CCC[C@](C)(O[C@@H]1O[C@H](CO)[C@@H](O)[C@H](O)[C@H]1O)[C@H]1CC[C@]2(C)[C@@H]1[C@H](O)C[C@@H]1[C@@]3(C)CC[C@H](O[C@@H]4O[C@H](CO)[C@@H](O)[C@H](O)[C@H]4O)C(C)(C)[C@@H]3CC[C@]12C` [Ginsenoside F2]: 0.933; `O=C(Nc1cccc(-c2ccccc2)c1)OC1CCCCC1`: 1.01; `CCOC(=O)C(C)(C)Oc1ccc(Cl)cc1` [Clofibrate]: 1.08.
The compound `O=c1cc(N2CCOCC2)oc2c1ccc1ccccc12` gave a cell viability of 0.917.
Turning to `CN1CCN(c2ccc(-c3ccncc3-c3cc(F)c(O)c(F)c3)cc2)CC1`, the cell viability came out at 1.11.
Next, `C[C@H](NC(=O)[C@@H](O)c1cc(F)cc(F)c1)C(=O)N[C@@H]1C(=O)N(C)c2ccccc2-c2ccccc21`: 0.773; `C[C@]12CC[C@@H]3c4ccc(O)cc4CC[C@H]3[C@@H]1CC[C@@H]2OC(=O)CCC1CCCC1` [Depofemin]: 1.1; `CCCC(=O)O` [Butyric  acid]: 1.04.
Next, `Cc1cc(Nc2ccc(NC(=O)c3ccc(Nc4ccnc5ccccc45)cc3)cc2)nc(N)n1`: 1.05.
Next, `O=C(Cc1ccc(-c2ccc(OCCN3CCOCC3)cc2)cn1)NCc1ccccc1`: 0.733; `Nc1ncn([C@H]2C[C@H](O)[C@@H](CO)O2)c(=O)n1` [Decitabine]: 0.827.
Compound `O=c1cc(-c2ccc(O)c(O)c2)oc2cc(O)cc(O)c12` [Luteolin] yielded a cell viability of 1.13.
Next, `CCOc1cc(C(=O)N2CCC(N3CCN(C)CC3)CC2)ccc1Nc1ncc2c(n1)N(C1CCCC1)c1ccccc1C(=O)N2C`: 1.02; `O=C(NOCCO)c1ccc2cncn2c1Nc1ccc(I)cc1F`: 0.951; `CC(=O)Nc1ccc(NC(=S)NC(=O)c2ccc(C(C)(C)C)cc2)cc1` [Tenovin-1]: 0.946.
With `O=C(Nc1ccc(Cl)cc1)C1CCCN(C(=O)c2cccc(-c3ccco3)c2)C1` (stereo unspecified) the figure was 0.946; with `CCN[C@H]1C[C@H](C)S(=O)(=O)c2sc(S(N)(=O)=O)cc21` [Dorzolamide hydrochloride], 1.21.
`O=C1Cc2cc(CCN3CCN(c4nsc5ccccc45)CC3)c(Cl)cc2N1` [Ziprasidone hydrochloride monohydrate]: the cell viability amounted to 1.13.
Next, `CC(C)/N=c1\cc2n(-c3ccc(Cl)cc3)c3ccccc3nc-2cc1Nc1ccc(Cl)cc1` [Clofazimine]: 1.14; `COc1cc(O)cc(CCc2ccc(O)c(OC)c2)c1` [Gigantol]: 0.85; `CN(CCOc1ccc(CC2SC(=O)NC2=O)cc1)c1ccccn1` (stereo unspecified) [Rosiglitazone maleate]: 0.953.
With `CN(CCOc1ccc(CC2SC(=O)NC2=O)cc1)c1ccccn1` (stereo unspecified) [Rosiglitazone] the figure was 0.948.
Next, `CN(C)CC[C@@H](c1ccc(Cl)cc1)c1ccccn1` [Dexchlorpheniramine Maleate]: 0.918; `O=C(NCC(=O)N1CCCC1)Nc1ccc2cnccc2c1`: 1.07; `COc1cc(OC)cc(C(=O)Nc2ccc(Cl)c(-c3nc4ccc(N(C)C)cc4[nH]3)c2)c1` [HhAntag]: 0.952.
Compound `C[C@@H]1CC[C@@]2(OC1)O[C@H]1C[C@H]3[C@@H]4CC=C5C[C@@H](O)C[C@@H](O)[C@]5(C)[C@H]4CC[C@]3(C)[C@H]1[C@@H]2C` [Ruscogenin] came in with a cell viability of 1.06.
Next, `COC(=O)C(N)CS` [L-Cysteine methyl ester hydrochloride(Acdrile)]: 1.02; `Cc1ccc(NS(=O)(=O)c2cccc(C#N)c2)c2[nH]cc(C#N)c12`: 0.669; `CS(=O)(=O)Nc1ccc([N+](=O)[O-])cc1OC1CCCCC1`: 1.12.
Compound `Nc1cc(-c2ccncc2)c[nH]c1=O` [Amrinone] returned a cell viability of 1.02.
For the compound `CN(C)CCOC(=O)COc1ccc(Cl)cc1` [Meclofenoxate hydrochloride], the cell viability is 0.936.
Next, `Brc1c(NC2=NCCN2)ccc2nccnc12` [Brimonidine Tartrate]: 0.846; `N=C(N)N/N=C/c1c(Cl)cccc1Cl` [Guanabenz Acetate]: 0.881.
With `C[C@H]1O[C@@H](O[C@H]2CC[C@@]3(C)[C@@H](CC[C@]4(C)[C@@H]3C=C[C@]35OC[C@@]6(CCC(C)(C)C[C@H]63)[C@H](O)C[C@]54C)[C@]2(C)CO)[C@H](O)[C@@H](O[C@@H]2O[C@H](CO)[C@@H](O)[C@H](O)[C@H]2O)[C@H]1O` [Saikosaponin D] the figure was 0.916.
With `N[C@@H](C(=O)N[C@@H]1C(=O)N2C(C(=O)O)=C(Cl)CS[C@H]12)c1ccccc1` [Cefaclor monohydrate] the figure was 1.21; with `COc1ccc(C(=O)NCc2ccc(OCCN(C)C)cc2)cc1OC` [Itopride hydrochloride], 0.975.
Compound `COC[C@H](NC(=O)c1cnc(C)s1)C(=O)N[C@@H](COC)C(=O)N[C@@H](Cc1ccccc1)C(=O)[C@@]1(C)CO1` [Oprozomib] had a cell viability of 0.371.
With `CCCCC(=O)N(Cc1ccc(-c2ccccc2-c2nnn[nH]2)cc1)[C@H](C(=O)O)C(C)C.CCOC(=O)[C@H](C)C[C@@H](Cc1ccc(-c2ccccc2)cc1)NC(=O)CCC(=O)O` the figure was 1.03.
The compound `C=CC(=O)Nc1cc(Nc2nccc(-n3cc(CN(C)C)c(-c4ccccc4)n3)n2)c(OC)cc1N1CCOCC1` [Lazertinib] showed a cell viability of 0.832.
Next, `Cc1cc(Nc2nc(N[C@@H](C)c3ncc(F)cn3)ncc2Cl)[nH]n1`: 0.841; `C[C@@H]1O[C@@H](Oc2cc(O)c3c(=O)c(O[C@@H]4O[C@@H](C)[C@H](O)[C@@H](O)[C@H]4O)c(-c4ccc(O)cc4)oc3c2)[C@H](O)[C@H](O)[C@H]1O` [Kaempferitrin]: 1.04.
With `S=C(N/N=C1/CCCc2cccnc21)N1CCN(c2ccccn2)CC1` the figure was 1.09; with `COc1ccc(-c2cc(C(F)F)nn2-c2ccc(S(N)(=O)=O)cc2)cc1F` [Deracoxib], 1.07; with `O=C(O)CC1CC(c2ccccc2)=NO1` (stereo unspecified), 0.932.
In the case of `CCN(c1cc(-c2ccc(CN3CCOCC3)cc2)cc(C(=O)NCc2c(C)cc(C)[nH]c2=O)c1C)C1CCOCC1`, the cell viability was determined as 1.08.
Next, `NC(N)=O`: 1.1; `CC1=C(CC(=O)O)c2cc(F)ccc2/C1=C\c1ccc([S+](C)[O-])cc1` (stereo unspecified) [Sulindac]: 1.07.
With `C=CC(=O)Nc1ccc2ncnc(Nc3ccc(OCc4cccc(F)c4)c(Cl)c3)c2c1` the figure was 0.866; with `C=CC(=O)N1CCC[C@@H](n2nc(-c3ccc(Oc4ccccc4)cc3)c3c(N)ncnc32)C1` [Ibrutinib], 0.741; with `O=C1N=C(N2CCOCC2)CN1c1ccc(Cl)cc1`, 0.919.
With `O=C(O)c1ccccc1C(=O)Nc1ccc(-c2ccccc2)cc1` [Kartogenin] the figure was 0.96; with `C[C@@H]1CN(CC(=O)Nc2ccc3c(c2)Cc2cccc(-c4cc(=O)cc(N5CCOCC5)o4)c2S3)C[C@H](C)O1`, 0.961; with `O=C(/C=C/c1ccc(O)cc1)C1=C(O)C(O)([C@@H]2O[C@H](CO)[C@@H](O)[C@H](O)[C@H]2O)C(O)=C([C@@H]2O[C@H](CO)[C@@H](O)[C@H](O)[C@H]2O)C1=O` (stereo partly specified) [Hydroxysafflor yellow A], 1.08.
Consider `O=C1CC(c2c[nH]c3ccc(F)cc23)C(=O)N1` (stereo unspecified), for which the cell viability amounted to 1.14.
Next, `CCc1cccc2c3c([nH]c12)C(CC)(CC(=O)O)OCC3` (stereo unspecified) [Etodolac]: 0.91; `Cc1noc(NS(=O)(=O)c2ccc(N)cc2)c1C` [Sulfisoxazole]: 1.07.
Next, `Cc1nc(N)sc1-c1ccnc(Nc2ccc(N3CCOCC3)cc2)n1`: 0.942; `C[C@]12CC[C@@H]3c4ccc(O)cc4CC[C@H]3[C@@H]1C[C@@H](O)[C@@H]2O` [Estriol]: 0.855.
Next, `CNC(=O)[C@H](Cc1ccccc1)NC(=O)[C@H](CC(C)C)[C@H](CSc1cccs1)C(=O)NO` [Batimastat]: 1.15.
